Source: patent US6448281B1 (Boehringer Ingelheim (Canada) Ltd., priority 2000, dated 2002)

Target: hepatitis C virus RNA dependent polymerase (NS5B) (Hepacivirus hominis (Hepatitis C virus), UniProt P26663)
Experiment: Inhibition of NS5B RNA dependent RNA polymerase activity (SPA, UMP-[5,6 3H] incorporation)
[1] = IC50 μM, first compound table (printed title TABLE 10; Table 1)

In the case of `O=C(N[C@@H](Cc1ccc(O)cc1)C(=O)Nc1cccnc1)c1ccc2c(c1)nc(-c1ccoc1)n2C1CCCCC1` [Entry 16046], the IC50 (IC50, Table 16) is reported as less than 1 µM.
With `O=C(NC1CCN(Cc2ccccc2C(=O)O)CC1)c1ccc2c(c1)nc(-c1ccoc1)n2C1CCCCC1` [Entry 1271] the IC50 [1] was 10 to 25 µM.
`O=C(O)CNC(=O)N1CCC(CNC(=O)c2ccc3c(c2)nc(-c2ccoc2)n3C2CCCCC2)CC1` [Entry 1192] showed an IC50 [1] of 10 to 25 µM.
With `COc1ccc(C[C@H](NC(=O)c2ccc3c(c2)nc(-c2ccoc2)n3C2CCCCC2)C(=O)O)cc1OC` [Entry 16007] the IC50 (IC50, Table 16) was less than 1 µM.
Molecule `CC(C)(Oc1ccc(C[C@H](NC(=O)c2ccc3c(c2)nc(-c2ccoc2)n3C2CCCCC2)C(N)=O)cc1)C(=O)O` [Entry 1171, 2-[4-((S)-2-Carbamoyl-2-{[1-(1-cyclohexyl-2-furan-3-yl-1H-benzimidazol-5-yl)-methanoyl]-amino}-ethyl)-phenoxy]-2-methyl-propionic acid] has an IC50 [1] of 10 to 25 µM.
`O=C(O)CNc1ccc(C[C@H](NC(=O)c2ccc3c(c2)nc(-c2ccoc2)n3C2CCCCC2)C(=O)O)cc1` [Entry 16010, (S)-3-[4-(Carboxymethylamino)phenyl]-2-{[1-(1-cyclohexyl-2-furan-3-yl-1H-benzoimidazol-5-yl)-methanoyl]-amino}-propionic Acid] showed an IC50 (IC50, Table 16) of less than 1 µM.
Work on `O=C(N[C@@H](Cc1c[nH]c2ccc(O)cc12)C(=O)O)c1ccc2c(c1)nc(-c1ccoc1)n2[C@@H]1CCC[C@H]1OCc1ccccc1` [Entry 3034] yielded an IC50 (IC50 μM, Table 3) of 5 to 10 µM.
In the case of `Cn1cc(C[C@H](NC(=O)c2ccc3c(c2)nc(-c2ccoc2)n3C2CCCCC2)C(N)=O)c2cc(O)ccc21` [Entry 13002, 1-Cyclohexyl-2-furan-3-yl-1H-benzimidazole-5-carboxylic Acid [(S)-1-carbamoyl-2-(5-hydroxy-1-methyl-1H-indol-3-yl)-ethyl]-amide], the IC50 (IC50, Table 13) is reported as less than 1 µM.
`CCOC(=O)c1cccc(NC(=O)NC2CCCC(NC(=O)c3ccc4c(c3)nc(-c3ccoc3)n4C3CCCCC3)C2)c1` (stereo not drawn) [Entry 1206] was tested, and the IC50 [1] was 10 to 25 µM.
Work on `O=C(Nc1ccc(C[C@H](NC(=O)c2ccc3c(c2)nc(-c2ccoc2)n3C2CCCCC2)C(=O)O)cc1)c1ccccc1` [Entry 1080, (S)-2-{[1-(1-Cyclohexyl-2-furan-3-yl-1H-benzoimidazol-5-yl)-methanoyl]amino}-3-{4-[(1-phenylmethanoyl)-amino]-phenyl}-propionic Acid] yielded an IC50 [1] of 1 to 5 µM.
`CC(Cc1ccc(O)cc1)(NC(=O)c1ccc2c(c1)nc(-c1ccoc1)n2C1CCCCC1)C(=O)O` (stereo not drawn) [Entry 1028] showed an IC50 [1] of 1 to 5 µM.
Molecule `O=C(N[C@H](Cc1c[nH]c2ccccc12)C(=O)O)c1ccc2c(c1)nc(-c1ccoc1)n2C1CCCCC1` [Entry 1233] has an IC50 of 5 to 10 µM.
In the case of `CC(C)n1c(-c2ccoc2)nc2cc(C(=O)N[C@@H](Cc3c[nH]c4ccc(O)cc34)C(=O)O)ccc21` [Entry 3033], the IC50 (IC50 μM, Table 3) is reported as 1 to 5 µM.
`O=C(O)COc1ccc2[nH]cc(C[C@H](NC(=O)c3ccc4c(c3)nc(-c3ccoc3)n4C3CCCC3)C(=O)O)c2c1` [Entry 22007] showed an IC50 (IC50 μM, Table 22) of less than 1 µM.
Molecule `O=C(NC1CCCN(C(=O)Nc2ccccc2C(=O)O)C1)c1ccc2c(c1)nc(-c1ccoc1)n2C1CCCCC1` (stereo not drawn) [Entry 1200] has an IC50 [1] of 10 to 25 µM.
Molecule `O=C(O)CCC(=O)N1CCC(NC(=O)c2ccc3c(c2)nc(-c2ccoc2)n3C2CCCCC2)C1` (stereo not drawn) [Entry 1220] has an IC50 [1] of 10 to 25 µM.
`O=C(O)c1ccc2c(n1)nc(-c1ccoc1)n2C1CCCCC1` [Entry 5001, 1-Cyclohexyl-2-furan-3-yl-1H-imidazo[4,5-b]pyridine-5-carboxylic Acid] showed an IC50 (IC50 μM, Table 5) of 5 to 10 µM.
Molecule `O=C(O)COc1ccc2[nH]cc(C[C@H](NC(=O)c3ccc4c(c3)nc(-c3ccoc3)n4C3CCCCC3)C(=O)O)c2c1` [Entry 11009] has an IC50 (IC50, Table 11) of less than 1 µM.
Work on `CC(C)[C@@H](CO)n1c(-c2ccoc2)nc2cc(C(=O)N[C@@H](Cc3c[nH]c4ccc(O)cc34)C(=O)O)ccc21` [Entry 22014] yielded an IC50 (IC50 μM, Table 22) of less than 1 µM.
With `COC(=O)[C@H](Cc1c[nH]c2ccc(OCC(=O)O)cc12)NC(=O)c1ccc2c(c1)nc(-c1ccoc1)n2C(C)C` [Entry 3005] the IC50 (IC50 μM, Table 3) was 1 to 5 µM.
In the case of `CC(=O)Nc1nc([C@H](Cc2ccc(O)cc2)NC(=O)c2ccc3c(c2)nc(-c2ccoc2)n3C2CCCCC2)cs1` [Entry 1242, 1-Cyclohexyl-2-furan-3-yl-1H-benzimidazole-5-carboxylic Acid [(S)-1-(2-Acetylamino-thiazol-4-yl)-2-(4-hydroxy-phenyl)-ethyl]-amide], the IC50 [1] is reported as 1 to 5 µM.
`COC(=O)C(NC(=O)c1ccc2c(c1)nc(-c1ccoc1)n2C1CCCCC1)c1ccc(OC)c(OC)c1` (stereo not drawn) [Entry 1003] gave an IC50 [1] of 5 to 10 µM.
Work on `CN(C)c1cccc2c(S(=O)(=O)NCCNC(=O)c3ccc(-c4nc5cc(C(=O)N[C@@H](Cc6c[nH]c7ccc(OCC(=O)O)cc67)C(=O)O)ccc5n4C4CCCCC4)cc3)cccc12` [Entry 2130, (S)-3-(5-Carboxymethoxy-1H-indol-3-yl)-2-{[1-(1-cyclohexyl-2-{4-[2-(5-dimethylamino-naphthalene-1-sulfonylamino)-ethylcarbamoyl]-phenyl}-1H-benzimidazol-5-yl)-methanoyl]-amino}-propionic Acid] yielded an IC50 (IC50 μM, Table 2) of 1 to 5 µM.
Work on `O=C(O)COc1ccccc1CN1CCC(NC(=O)c2ccc3c(c2)nc(-c2ccoc2)n3C2CCCCC2)CC1` [Entry 1266] yielded an IC50 [1] of 5 to 10 µM.
Molecule `CC(CC(=O)Nc1cccc(-c2ccc(C(=O)O)o2)c1)NC(=O)c1ccc2c(c1)nc(-c1ccoc1)n2C1CCCCC1` (stereo not drawn) [Entry 1166] has an IC50 [1] of 5 to 10 µM.
In the case of `CCOC(=O)CCNC(=O)N1CCC(NC(=O)c2ccc3c(c2)nc(-c2ccoc2)n3C2CCCCC2)CC1` [Entry 1219], the IC50 [1] is reported as 10 to 25 µM.
`COc1ccc(C[C@H](NC(=O)c2ccc3c(c2)nc(-c2ccoc2)n3C2CCCCC2)C(=O)O)cc1/C=C/C(=O)O` [Entry 16051, (E)-3-[5-((S)-2-Carboxy-2-{[1-(1-cyclohexyl-2-furan-3-yl-1H-benzimidazol-5-yl)-methanoyl]-amino}-ethyl)-2-methoxy-phenyl]-acrylic Acid] showed an IC50 (IC50, Table 16) of less than 1 µM.
Work on `O=C(O)[C@@H]1C[C@H](O)CN1C(=O)c1ccc2c(c1)nc(-c1ccoc1)n2C1CCCCC1` [Entry 6002] yielded an IC50 (IC50 μM, Table 6) of 10 to 25 µM.
`O=C(O)COc1ccc(CC(NC(=O)c2ccc3c(c2)nc(-c2ccoc2)n3C2CCCCC2)C(=O)O)cc1C(=O)O` (racemic) [Entry 16054, 5-(2-Carboxy-2-{[1-(1-cyclohexyl-2-furan-3-yl-1H-benzimidazol-5-yl)-methanoyl]-amino}-ethyl)-2-carboxymethoxy-benzoic Acid] showed an IC50 (IC50, Table 16) of less than 1 µM.
Molecule `CC(CC(=O)Nc1ccc(CC(=O)O)cc1)NC(=O)CC(C)NC(=O)c1ccc2c(c1)nc(-c1ccoc1)n2C1CCCCC1` (stereo not drawn) [Entry 1169] has an IC50 [1] of 10 to 25 µM.
`O=C(O)COc1ccccc1CNC1CCCC(NC(=O)c2ccc3c(c2)nc(-c2ccoc2)n3C2CCCCC2)C1` (stereo not drawn) [Entry 1263] gave an IC50 [1] of 5 to 10 µM.
Work on `COc1ccc(C(NC(=O)c2ccc3c(c2)nc(-c2ccc(C=CC(=O)O)cc2)n3C2CCCCC2)C(=O)O)cc1OC` (stereo not drawn) [Entry 2083] yielded an IC50 (IC50 μM, Table 2) of 10 to 25 µM.
Molecule `CS(=O)(=O)Nc1ccc2[nH]cc(C[C@H](NC(=O)c3ccc4c(c3)nc(-c3ccoc3)n4C3CCCCC3)C(N)=O)c2c1` [Entry 13006, 1-Cyclohexyl-2-furan-3-yl-1H-benzimidazole-5-carboxylic Acid [(S)-1-Carbamoyl-2-(5-methanesulfonylamino-1H-indol-3-yl)-ethyl]-amide] has an IC50 (IC50, Table 13) of less than 1 µM.

Read-outs that look alike come from different tables or passages of the source.
